# According to PubChem BioAssay AID686978 (National Center for Advancing Translational Sciences (NCATS), 2013):
# Screen size: about 420,000 compounds; about 64,000 (15%) were called active. Inconclusive results, whose numbers are uncertain, are shown with a selection of clear calls. Calls follow the shape of the dose curve; as a rule, active = well fitted inhibition curve with a large enough effect; inconclusive = small, poorly fitted or top-dose-only effect; inactive = flat fitted curve, though single readings scatter. No potency is given beside an inconclusive call; the fits are too rough.
# Test: qHTS for Inhibitors of human tyrosyl-DNA phosphodiesterase 1 (TDP1): qHTS in cells in absence of CPT; also: nearly all actives have a fitted effect of over 55% in size
# Conditions: DT40 Tdp1-/- hTDP1 cells, no CPT, ATP luminescence, 48 h; activity change, negative = growth inhibition: at 46.2 µM (top of the series) unless noted
# How it was run: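 Cells were dispensed at 400 per well, compounds added by pin tool, plates incubated ≥48 hr at 37 °C, then CellTiter-Glo added for 30 min at room temperature before luminescence reading. Line: DT40 Tdp1-/- complemented with hTDP1; camptothecin omitted.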
# % is scaled to controls: 0 for no effect and ±100 for the full control effect; potency is read from the fitted curve at half-maximal effect; tags tell the direction and shape of the fitted curve.
Structure (SMILES),Potency,"activity change, negative = growth inhibition"
CCOC(=O)N1CCN(Cc2ccc(F)cc2F)CC1,inactive,–
CCCc1nc2ccccc2c(=O)n1NC(=O)c1c(O)c2ccccc2[nH]c1=O,"inconclusive [inhibitor, single point]",–
COc1ccc(NC(=O)c2cc3ccccc3oc2=O)cc1,"inconclusive [inhibitor, partial curve, poor fit]",–
Cc1ccc(N(C)S(=O)(=O)c2ccc3[nH]c(=O)ccc3c2)cc1,"inconclusive [inhibitor, single point]",–
CC1CCN(C(=O)NC(=O)c2ccccc2)CC1,inactive,–
CN(C)CCNC(C(=O)Nc1cc(Cl)cc(Cl)c1)c1ccccc1 (stereo not given),"inconclusive [inhibitor, single point]",–
Cn1c(/N=C(\N)c2ccccc2)nc2ccccc21,"inconclusive [inhibitor, single point]",–
O=C(CSc1nnc(-c2ccco2)o1)c1ccc(O)cc1O,"inconclusive [inhibitor, partial curve]",–
CCN(CC)C(=O)C1CCCN(C(=S)Nc2cccc3ccccc23)C1 (stereo not given),"inconclusive [inhibitor, single point]",–
COc1ccc(NC(=O)c2cnn(-c3ccc(C)c(C)c3)c2C2CCNCC2)cc1OC,"inconclusive [inhibitor, single point]",–
Cc1ccc(C(=O)NCC(=O)Nc2cc(C)ccn2)cc1,inactive,–
N#C/C(=C\c1ccc(OCc2ccc(Cl)cc2Cl)cc1)c1nc2ccccc2[nH]1,active: 20.6 µM,–
CCOC(=O)CSc1nc2ccccc2c(=O)n1CC1CCC(C(=O)NCc2ccco2)CC1 (stereo not given),active: 23.1 µM,–
CCN(c1ccccc1)S(=O)(=O)c1ccc(OC)c(NC(=O)C2=NN(c3ccccc3)C(=O)CC2)c1,inactive,–
CCN(CC)CCN(C(=O)c1ccc(S(=O)(=O)N2CCCC2)cc1)c1nc2cc(C)cc(C)c2s1,"inconclusive [inhibitor, single point]",–
Cc1oc2c(cc(NS(=O)(=O)c3ccc(C(C)C)cc3)c3ccccc32)c1C(=O)OCc1ccccc1,"inconclusive [inhibitor, single point]",–
O=C(Nc1ccc(N2C(=O)C3C4C=CC(C4)C3C2=O)cc1)Nc1nncs1 (stereo not given),"inconclusive [inhibitor, single point]",–
CN(CC(=O)Nc1cccc(F)c1)C(=O)Cc1n[nH]c(=O)c2ccccc12,inactive,–
Cc1cc(NC(=O)c2cncc(Br)c2)n(-c2ccccn2)n1,"inconclusive [inhibitor, partial curve, poor fit]",–
CCOC(=O)C1(C)CCN1C(=O)c1cc(OC)ccc1Br (stereo not given),"inconclusive [inhibitor, single point]",–
Cc1cccc(C2=Nc3ccccc3N=C(c3cc(Cl)ccc3O)C2)c1,"inconclusive [inhibitor, full curve]",–
O=C(NCc1ccccn1)C(=O)NCC(c1ccco1)N1CCN(c2ccc(F)cc2)CC1 (stereo not given),"inconclusive [inhibitor, single point]",–
O=C(Cc1ccc(Br)cc1)N(Cc1ccccc1)c1ccccn1,inactive,–

Structure (SMILES),Potency,"activity change, negative = growth inhibition"
Cc1ccc(C2C3=C(CCCC3=O)Nc3nc(SCC(=O)NCc4ccco4)[nH]c(=O)c32)cc1 (stereo not given),inactive,–
O=C1[C@@H]2C(c3cccnc3)=NO[C@@H]2C(=O)N1c1ccc(Cl)cc1Cl,inactive,–
Cc1ccc(-n2nc3c(=O)n(CCCC(=O)NCc4cccc(F)c4)nc(C)c3c2C)cc1,active: 14.6 µM,–
O=C(NCCNC(=O)c1cc(OCC(F)(F)F)ccc1OCC(F)(F)F)Nc1cccc(C(F)(F)F)c1,"inconclusive [inhibitor, single point]",–
Cc1cccc(NC(=O)/C(C#N)=C/c2ccco2)c1,"inconclusive [inhibitor, full curve]",–
COc1ccc(OC)c(CNC(=O)c2cc3c(Cl)nc4ccccc4c3s2)c1,"inconclusive [inhibitor, single point]",–
O=C(CNC(=S)N(CCCN1CCOCC1)Cc1cccs1)N1CCCCCC1,inactive,–
O=C(CSc1nc2ccccc2c(=O)[nH]1)N1CCN(S(=O)(=O)c2ccccc2)CC1,inactive,–
OCC1CCN(Cc2cn(Cc3ccccc3)nc2-c2cc3ccccc3o2)CC1,"inconclusive [inhibitor, single point]",–
CCC(CO)n1c(SCc2cc([N+](=O)[O-])cc3c2OCOC3)nc2ccccc2c1=O (stereo not given),"inconclusive [inhibitor, single point]",–
CC(C)=CCN1CCN(Cc2ccc(Oc3ncccn3)cc2)CC1CCO (stereo not given),inactive,–
CC(C)c1ccc(NC(=O)C2CSC3(C)CCC(=O)N23)cc1 (stereo not given),inactive,–
CCCNC(=O)C(Cc1cccc(Br)c1)NC(=O)c1ccc(C#N)cc1 (stereo not given),"inconclusive [inhibitor, single point]",–
O=C(Nc1cccc(Br)c1)N1CCN2CCCCC2C1 (stereo not given),"inconclusive [inhibitor, single point]",–
CC(C)(CCC(=S)N1CCOCC1)C1CCCCC1,"inconclusive [inhibitor, full curve, poor fit]",–
CCOc1ccc(S(=O)(=O)N2CCOCC2)cc1NC(=O)CSCc1ccc(C)cc1,active: 4.61 µM,–
CCOc1ccc(NC(=O)CN(C)C(=O)CSCc2c(C)noc2C)cc1OCC,–,inconclusive: -37.2% [inhibitor]
Cn1c(C(=O)N2CCN(C(=O)c3ccco3)CC2)cc2c(=O)n(C)c3ccccc3c21,"inconclusive [inhibitor, single point]",–
Cc1ccc(-n2ncc3c(NCc4ccco4)ncnc32)c(C)c1,"inconclusive [inhibitor, single point]",–
COc1ccccc1CC(=O)Nc1ccc2nc(Nc3cccc(C(F)(F)F)c3)cc(C)c2c1,active: 5.8 µM,–
COc1ccccc1NC(C#N)c1ccccc1OCc1ccccc1 (stereo not given),"inconclusive [inhibitor, single point]",–
CCOC(=O)C(C(=O)OCC)[C@@H]1CS(=O)(=O)C[C@H]1C(C(=O)OCC)C(=O)OCC,inactive,–
